# Source: the supplement of paper PMC8728848
# The other results are listed elsewhere or left out.
# B1: XCL (Xerocomus chrysenteron) (protein)
# chain: MSYSITLRVYQTNRDRGYFSIVEKTVWHFANGGTWSEANGAHTLTQGGSGTSGVLRFLSTKGERITVAVGVHNYKRWCDVVTGLKPDETALVINPQYYNNGGRDYVREKQLAEYSVTSAIGTKVEVVYTVAEGNNLEANVIFS
# Tests used:
# Experiment in all cases: glycan array binding signal (z-score within array); higher = stronger binding
# Details in all cases: glycan notation: IUPAC condensed, linker removed
# Fuc(a1-2)Gal = target: Fuc(a1-2)Gal
# How it was run: (§1)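 Glycan array binding is given as a within-array Z-score, which can be read as non-binding when negative. The arrays, 3228 of them, came from the Consortium for Functional Glycomics database and were retained only where the protein sequence was available. Z-scores were averaged across arrays of the same protein sequence at different concentrations or buffers and across linkers.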
# Fuc(a1-2)Gal(b1-3)GalNAc = target: Fuc(a1-2)Gal(b1-3)GalNAc
# How it was run: as §1
# [1] = target: Fuc(a1-2)Gal(b1-3)GalNAc(a1-3)[Fuc(a1-2)]Gal(b1-4)Glc
# How it was run: as §1
# [2] = target: Fuc(a1-2)Gal(b1-3)GalNAc(a1-3)[Fuc(a1-2)]Gal(b1-4)GlcNAc
# How it was run: as §1
# [3] = target: Fuc(a1-2)Gal(b1-3)GalNAc(b1-3)Gal
# How it was run: as §1
# [4] = target: Fuc(a1-2)Gal(b1-3)GalNAc(b1-3)Gal(a1-4)Gal(b1-4)Glc
# How it was run: as §1
# [5] = target: Fuc(a1-2)Gal(b1-3)GalNAc(b1-4)[Neu5Ac(a2-3)]Gal(b1-4)Glc
# How it was run: as §1
# Fuc(a1-2)Gal(b1-3)GlcNAc = target: Fuc(a1-2)Gal(b1-3)GlcNAc
# How it was run: as §1
# [6] = target: Fuc(a1-2)Gal(b1-3)GlcNAc(b1-2)Man(a1-3)[Fuc(a1-2)Gal(b1-3)GlcNAc(b1-2)Man(a1-6)]Man(b1-4)GlcNAc(b1-4)GlcNAc
# How it was run: as §1
# [7] = target: Fuc(a1-2)Gal(b1-3)GlcNAc(b1-2)Man(a1-3)[Fuc(a1-2)Gal(b1-3)GlcNAc(b1-2)Man(a1-6)]Man(b1-4)GlcNAc(b1-4)[Fuc(a1-6)]GlcNAc
# How it was run: as §1
# [8] = target: Fuc(a1-2)Gal(b1-3)GlcNAc(b1-3)Gal(b1-4)Glc
# How it was run: as §1
# [9] = target: Fuc(a1-2)Gal(b1-3)GlcNAc(b1-3)GalNAc
# How it was run: as §1
# [10] = target: Fuc(a1-2)Gal(b1-3)GlcNAc(b1-3)[Fuc(a1-3)[Gal(b1-4)]GlcNAc(b1-6)]Gal(b1-4)Glc
# How it was run: as §1
# [11] = target: Fuc(a1-2)Gal(b1-3)GlcNAc(b1-3)[Gal(b1-4)GlcNAc(b1-6)]Gal(b1-4)Glc
# How it was run: as §1
# [12] = target: Fuc(a1-2)Gal(b1-3)GlcNAc(b1-3)[Neu5Ac(a2-6)Gal(b1-4)GlcNAc(b1-6)]Gal(b1-4)Glc
# How it was run: as §1
# [13] = target: Fuc(a1-2)Gal(b1-3)[Fuc(a1-4)]GlcNAc
# How it was run: as §1
# [14] = target: Fuc(a1-2)Gal(b1-3)[Fuc(a1-4)]GlcNAc(b1-2)Man(a1-3)[Fuc(a1-2)Gal(b1-3)[Fuc(a1-4)]GlcNAc(b1-2)Man(a1-6)]Man(b1-4)GlcNAc(b1-4)GlcNAc
# How it was run: as §1
# [15] = target: Fuc(a1-2)Gal(b1-3)[Fuc(a1-4)]GlcNAc(b1-3)[Fuc(a1-3)[Gal(b1-4)]GlcNAc(b1-6)]Gal(b1-4)Glc
# How it was run: as §1
# [16] = target: Fuc(a1-2)Gal(b1-3)[Fuc(a1-4)]GlcNAc(b1-3)[Gal(b1-4)GlcNAc(b1-6)]Gal(b1-4)Glc
# How it was run: as §1
# Fuc(a1-2)Gal(b1-4)Glc = target: Fuc(a1-2)Gal(b1-4)Glc
# How it was run: as §1
# Fuc(a1-2)Gal(b1-4)Glc6S = target: Fuc(a1-2)Gal(b1-4)Glc6S
# How it was run: as §1
# Fuc(a1-2)Gal(b1-4)GlcNAc = target: Fuc(a1-2)Gal(b1-4)GlcNAc
# How it was run: as §1
# [17] = target: Fuc(a1-2)Gal(b1-4)GlcNAc(b1-2)Man(a1-3)[Fuc(a1-2)Gal(b1-4)GlcNAc(b1-2)Man(a1-6)]Man(b1-4)GlcNAc(b1-4)GlcNAc
# How it was run: as §1
# [18] = target: Fuc(a1-2)Gal(b1-4)GlcNAc(b1-2)Man(a1-3)[Fuc(a1-2)Gal(b1-4)GlcNAc(b1-2)Man(a1-6)]Man(b1-4)GlcNAc(b1-4)[Fuc(a1-6)]GlcNAc
# How it was run: as §1
# [19] = target: Fuc(a1-2)Gal(b1-4)GlcNAc(b1-2)[Fuc(a1-2)Gal(b1-4)GlcNAc(b1-4)]Man(a1-3)[Fuc(a1-2)Gal(b1-4)GlcNAc(b1-2)Man(a1-6)]Man(b1-4)GlcNAc(b1-4)GlcNAc
# How it was run: as §1
# [20] = target: Fuc(a1-2)Gal(b1-4)GlcNAc(b1-3)Gal(b1-4)GlcNAc
# How it was run: as §1
# [21] = target: Fuc(a1-2)Gal(b1-4)GlcNAc(b1-3)Gal(b1-4)GlcNAc(b1-3)Gal(b1-4)GlcNAc
# How it was run: as §1
# [22] = target: Fuc(a1-2)Gal(b1-4)GlcNAc(b1-3)GalNAc
# How it was run: as §1
# [23] = target: Fuc(a1-2)Gal(b1-4)GlcNAc(b1-3)[Fuc(a1-2)Gal(b1-4)GlcNAc(b1-6)]GalNAc
# How it was run: as §1
# [24] = target: Fuc(a1-2)Gal(b1-4)GlcNAc6S
# How it was run: as §1
# [25] = target: Fuc(a1-2)Gal(b1-4)[Fuc(a1-3)]GlcNAc
# How it was run: as §1
# [26] = target: Fuc(a1-2)Gal(b1-4)[Fuc(a1-3)]GlcNAc(b1-2)Man(a1-3)[Fuc(a1-2)Gal(b1-4)[Fuc(a1-3)]GlcNAc(b1-2)Man(a1-6)]Man(b1-4)GlcNAc(b1-4)GlcNAc
# How it was run: as §1
# [27] = target: Fuc(a1-2)Gal(b1-4)[Fuc(a1-3)]GlcNAc(b1-2)[Fuc(a1-2)Gal(b1-4)[Fuc(a1-3)]GlcNAc(b1-4)]Man(a1-3)[Fuc(a1-2)Gal(b1-4)[Fuc(a1-3)]GlcNAc(b1-2)Man(a1-6)]Man(b1-4)GlcNAc(b1-4)GlcNAc
# How it was run: as §1
# [28] = target: Fuc(a1-2)Gal(b1-4)[Fuc(a1-3)]GlcNAc(b1-3)Gal(b1-4)[Fuc(a1-3)]GlcNAc
# How it was run: as §1
# [29] = target: Fuc(a1-2)Gal(b1-4)[Fuc(a1-3)]GlcNAc(b1-3)Gal(b1-4)[Fuc(a1-3)]GlcNAc(b1-3)Gal(b1-4)[Fuc(a1-3)]GlcNAc
# How it was run: as §1
# [30] = target: Fuc(a1-2)Gal(b1-4)[Fuc(a1-3)]GlcNAc(b1-3)GalNAc
# How it was run: as §1
# Fuc(a1-2)Gal6S(b1-4)Glc = target: Fuc(a1-2)Gal6S(b1-4)Glc
# How it was run: as §1
binder,measurement,setting,value
B1,glycan array binding signal (z-score),Fuc(a1-2)Gal,-0.307
same,glycan array binding signal (z-score),Fuc(a1-2)Gal(b1-3)GalNAc,-0.206
same,glycan array binding signal (z-score),[1],-0.292
same,glycan array binding signal (z-score),[2],0.115
same,glycan array binding signal (z-score),[3],-0.312
same,glycan array binding signal (z-score),[4],-0.322
same,glycan array binding signal (z-score),[5],-0.312
same,glycan array binding signal (z-score),Fuc(a1-2)Gal(b1-3)GlcNAc,-0.302
same,glycan array binding signal (z-score),[6],-0.301
same,glycan array binding signal (z-score),[7],-0.313
same,glycan array binding signal (z-score),[8],-0.318
same,glycan array binding signal (z-score),[9],-0.28
same,glycan array binding signal (z-score),[10],-0.322
same,glycan array binding signal (z-score),[11],-0.321
same,glycan array binding signal (z-score),[12],-0.318
same,glycan array binding signal (z-score),[13],-0.296
same,glycan array binding signal (z-score),[14],-0.212
same,glycan array binding signal (z-score),[15],-0.325
same,glycan array binding signal (z-score),[16],-0.291
same,glycan array binding signal (z-score),Fuc(a1-2)Gal(b1-4)Glc,-0.315
same,glycan array binding signal (z-score),Fuc(a1-2)Gal(b1-4)Glc6S,-0.324
same,glycan array binding signal (z-score),Fuc(a1-2)Gal(b1-4)GlcNAc,-0.324
same,glycan array binding signal (z-score),[17],-0.295
same,glycan array binding signal (z-score),[18],-0.256
same,glycan array binding signal (z-score),[19],-0.271
same,glycan array binding signal (z-score),[20],-0.317
same,glycan array binding signal (z-score),[21],-0.317
same,glycan array binding signal (z-score),[22],0.234
same,glycan array binding signal (z-score),[23],-0.27
same,glycan array binding signal (z-score),[24],-0.327
same,glycan array binding signal (z-score),[25],-0.225
same,glycan array binding signal (z-score),[26],-0.25
same,glycan array binding signal (z-score),[27],-0.173
same,glycan array binding signal (z-score),[28],-0.293
same,glycan array binding signal (z-score),[29],-0.312
same,glycan array binding signal (z-score),[30],-0.23
same,glycan array binding signal (z-score),Fuc(a1-2)Gal6S(b1-4)Glc,-0.321
